Laboratory results as given in PubChem BioAssay AID2107 (National Center for Advancing Translational Sciences (NCATS), 2009).
About 20 (0.008%) of roughly 240,000 compounds were called active. The inconclusive results got no clear call from the source; some entries with a clear call stand among them for comparison. The call rests on the fitted dose curve; in most records, active means well fitted inhibition curve with a large enough effect; inconclusive means small, poorly fitted or top-dose-only effect, or effect the other way; inactive means flat fitted curve, though single readings scatter. No potency is given beside an inconclusive call; the fits are too rough.

The compounds below were run against Alpha-galactosidase A (Homo sapiens) (UniProt P06280) (assay: qHTS Assay for Inhibitors and Activators of Human alpha-Galactosidase From Spleen Homogenate). Settings: 4MU-alpha-Gal fluorescence, 40 min; activity change, negative = inhibition: at 80 µM (top of the series).
Procedure, shortened: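 Human spleen homogenate (1 ug) was the enzyme source, with 4-methylumbelliferyl-alpha-D-galactopyranoside (1 mM final) in pH 5.0 citrate buffer with 0.01% Tween-20. Compounds were titrated; after 40 min at 37C, NaOH/glycine stop, 4-MU fluorescence read; AC50 from Hill fits.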
Potency means the concentration at half of the fitted maximal effect; tags describe the fitted curve by direction and shape.
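Wherever activity change, negative = inhibition is given: 0% = enzyme with vehicle and -100% = no enzyme basal signal.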

UniProt P06280, sequence (P06280 whole entry, looked up): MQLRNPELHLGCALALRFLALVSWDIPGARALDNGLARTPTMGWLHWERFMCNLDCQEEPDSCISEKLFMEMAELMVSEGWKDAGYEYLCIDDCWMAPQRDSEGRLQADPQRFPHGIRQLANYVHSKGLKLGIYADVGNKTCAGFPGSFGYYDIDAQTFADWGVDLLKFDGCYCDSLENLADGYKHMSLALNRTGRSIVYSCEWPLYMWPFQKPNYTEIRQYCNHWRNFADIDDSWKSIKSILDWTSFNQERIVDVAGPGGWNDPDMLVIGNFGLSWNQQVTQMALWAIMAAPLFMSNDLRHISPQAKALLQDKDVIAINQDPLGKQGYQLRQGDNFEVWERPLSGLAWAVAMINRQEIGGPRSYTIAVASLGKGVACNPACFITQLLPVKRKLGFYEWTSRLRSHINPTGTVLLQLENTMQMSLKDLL

How did the Potency turn out when `CN(C)c1oc(-c2cccs2)nc1C#N` was run?
The Potency was inconclusive [activator, partial curve].

With `O=c1cc(CN2CCN(c3ccc(O)cc3)CC2)nc2scc(-c3ccccc3)n12` as the compound, how does the “activity change, negative = inhibition” value read?
The value was inactive: 0.263%.

With `CC(C)CC(C(=O)Oc1ccc2c3c(c(=O)oc2c1)CCC3)N1C(=O)c2ccccc2C1=O` (stereo not drawn) as the compound, how does the Potency read?
Its Potency is inconclusive [activator, partial curve].

With `Cn1c(=O)c(-c2ccc(F)cc2)nc2cnc(N3CCOCC3)nc21` as the compound, how does the Potency read?
Its Potency is inconclusive [activator, single point].

How did the Potency turn out when `CCn1nnnc1SCC(=O)Nc1cccc(NC(C)=O)c1` was run?
The Potency was inconclusive [activator, single point].

With `CCCCN(C(=O)c1cc(OC)c(OC)c(OC)c1)C1=CC2CCC(C1)N2C` (stereo not drawn) as the compound, how does the Potency read?
The Potency was inconclusive [activator, single point].

`CC(C)CCNC(=O)c1cc2c(s1)-c1ccccc1S(=O)(=O)C2` was tested. Which Potency did it give?
The Potency was inconclusive [inhibitor, single point].

For `Cc1cc(C(=O)N/N=C/c2ccc([N+](=O)[O-])cc2)c2ccccc2n1`, which “activity change, negative = inhibition” value is on record?
Its value is inactive: -0.084%.

How did the “activity change, negative = inhibition” value turn out when `CCN(CC)S(=O)(=O)c1cccc(NC(=O)c2ccccc2Br)c1` was run?
Its value is inactive: 2.32%.

For `O=c1ccc2ccc(OS(=O)(=O)O)cc2o1`, which Potency is on record?
Its Potency is inconclusive [activator, partial curve].

Which Potency does the source give for `O=C(COc1ccc2c(c1)C(=O)CC1(CCCCC1)O2)NCc1ccccn1` here?
The Potency was inconclusive [activator, single point].

Which Potency does the source give for `O=C(NCC(c1ccco1)N1CCCCC1)C(c1ccccc1)c1ccccc1` (stereo not drawn) here?
The Potency was inconclusive [inhibitor, partial curve].

Which Potency does the source give for `O=C1C=CC(=O)c2c(O)c(Cl)c(Cl)c(O)c21` here?
The Potency was inconclusive [activator, partial curve].

With `CC(C)c1nnc(SCC(=O)NCCC2=CCCCC2)n1N` as the compound, how does the “activity change, negative = inhibition” value read?
The value was inactive: 4.42%.

With `CC(Sc1nc(-c2ccccc2)cc(C(F)(F)F)n1)C(=O)Nc1sc2c(c1C(N)=O)CCC2` (stereo not drawn) as the compound, how does the “activity change, negative = inhibition” value read?
Its value is inactive: 8.96%.

Which “activity change, negative = inhibition” value does the source give for `COc1ccc(CCNCc2csc3nc4ccccc4n23)cc1OC` here?
The value was inactive: 6.5%.

How did the “activity change, negative = inhibition” value turn out when `CC(C)OCCCNc1ncc2c(n1)CC(c1ccc(N(C)C)cc1)CC2=O` (stereo not drawn) was run?
Its value is inactive: -8.17%.

For `O=S(=O)(NCC(c1ccccc1)N1CCNCC1)c1ccc(Cl)cc1` (stereo not drawn), which Potency is on record?
The Potency was inconclusive [activator, full curve].

With `O=C(NCc1ccccn1)c1ccc2c(=O)n(CCc3ccccc3)c(=O)[nH]c2c1` as the compound, how does the Potency read?
Its Potency is inconclusive [activator, single point].

How did the Potency turn out when `Cc1cc(C)c2c(n1)nn1c(NCCCN(C)C)cc(C)nc21` was run?
Its Potency is inconclusive [activator, single point].

For `Cc1nc2cnc(N3CCN(C)CC3)nc2n(Cc2ccc(F)cc2)c1=O`, which Potency is on record?
Its Potency is inconclusive [activator, single point].

Which Potency does the source give for `CCCCNC(=O)c1cn(CC)c2cc(N3CCN(C)CC3)c(F)cc2c1=O` here?
The Potency was inconclusive [inhibitor, single point].

How did the activity change, negative = inhibition turn out when `CCOC(=O)N/N=C1/C[C@@H](O)[C@@H](O)[C@@H]2[C@@H]3C(=O)N(C[C@@H]4CCCO4)C(=O)[C@H]3CC[C@H]12` was run?
Its activity change, negative = inhibition is inactive: -1.72% [at 17.5 µM].

Which Potency does the source give for `COc1ccc(S(=O)(=O)c2c(N)n(Cc3ccco3)c3nc4ccccc4nc23)cc1` here?
Its Potency is inconclusive [activator, single point].

With `CC1=C(C(=O)OCC2CCCO2)C(c2ccncc2)C2=C(CC(C)(C)CC2=O)N1` (stereo not drawn) as the compound, how does the Potency read?
Its Potency is inconclusive [activator, single point].

`CC1(C)CC(=O)c2cc(OCC(=O)N3CCCCCC3)ccc2O1` was tested. Which Potency did it give?
The Potency was inconclusive [activator, partial curve].

For `COc1ccc(-n2c(=O)c(-c3ccc(F)cc3)nc3cncnc32)cc1`, which Potency is on record?
The Potency was inconclusive [inhibitor, single point].

With `O=C(NCc1ccco1)c1cccc(NS(=O)(=O)c2ccccc2F)c1` as the compound, how does the Potency read?
Its Potency is inconclusive [inhibitor, single point].

For `CCc1cc(=O)oc2c(C)c(O)c(CN3CCCCC3)cc12`, which Potency is on record?
The Potency was inconclusive [activator, partial curve].

How did the Potency turn out when `COc1ccc(N(C)S(=O)(=O)c2cccc(C(=O)OCC(=O)NCc3ccccc3OC)c2)cc1` was run?
The Potency was inconclusive [activator, full curve].

With `CCOC(=O)N1CCN(C(=O)C2CCN(Cc3cccc(OCc4ccccc4)c3)CC2)CC1` as the compound, how does the “activity change, negative = inhibition” value read?
The value was inactive: -3%.

Which Potency does the source give for `CCOC(=O)c1cc(-c2ccc(OC)cc2F)nc2c1c(C)nn2CCC#N` here?
Its Potency is inconclusive [activator, partial curve].

How did the “activity change, negative = inhibition” value turn out when `Cc1ccc(C2=NN(C(=O)c3cccs3)C(c3ccccc3O)C2)cc1` (stereo not drawn) was run?
The value was inactive: -1.97%.

How did the Potency turn out when `CCS(=O)(=O)Nc1ccc(C2=NN(C(C)=O)C(c3cccs3)C2)cc1` (stereo not drawn) was run?
The Potency was inconclusive [activator, partial curve].

How did the Potency turn out when `COCCOC(=O)c1c(N)n(CCCN2CCOCC2)c2nc3ccccc3nc12` was run?
Its Potency is inconclusive [activator, partial curve].

`CCC(CC)C(=O)N1N=C(c2ccc(NS(C)(=O)=O)cc2)CC1c1ccc(C)cc1` (stereo not drawn) was tested. Which Potency did it give?
The Potency was inconclusive [activator, single point].

Which Potency does the source give for `Cc1nn(-c2nc3ccccc3[nH]2)c(N)c1-c1ccc(Cl)cc1` here?
The Potency was inconclusive [inhibitor, partial curve, poor fit].

`O=C(Oc1c(CN2CCOCC2)cc(Cl)c2cccnc12)c1ccc(F)cc1` was tested. Which “activity change, negative = inhibition” value did it give?
Its value is inactive: 1.77%.

With `CCOC(=O)CN1C(=O)N[C@@H](c2cccc(C(F)(F)F)c2)[C@H](C(=O)OC)[C@H]1C` as the compound, how does the activity change, negative = inhibition read?
The activity change, negative = inhibition was inactive: -3.9% [at 17.5 µM].

Which Potency does the source give for `COCCn1c(=O)c(-c2ccccc2)nc2cnc(N(C)C)nc21` here?
Its Potency is inconclusive [activator, partial curve].

How did the Potency turn out when `CN1CCc2c(sc3c2C(=O)NC(c2ccccn2)N3)C1` (stereo not drawn) was run?
The Potency was inconclusive [activator, partial curve].

Which “activity change, negative = inhibition” value does the source give for `COc1ccc(C(=O)/C(C#N)=N/Nc2ccc([N+](=O)[O-])cc2)cc1` here?
The value was inactive: 8.03%.

For `O=c1[nH]c2cc3c(cc2cc1C(c1nnnn1Cc1ccccc1)N1CCN2CCCC2C1)OCCO3` (stereo not drawn), which Potency is on record?
Its Potency is inconclusive [activator, single point].
